Data: PubChem BioAssay AID485364 (National Center for Advancing Translational Sciences (NCATS), 2010)
Out of some 360,000 compounds screened, about 11,000 (3.1%) were called active. This list was built around the results that the source calls inconclusive (neither active nor inactive); the mix of calls is not that of the screen. Calls follow the shape of the dose curve; as a rule, active = well fitted inhibition curve with a large enough effect; inconclusive = small, poorly fitted or top-dose-only effect; inactive = no such curve, though single readings can be large or run the other way. No potency is given beside an inconclusive call; the fits are too rough.
Also: nearly all actives have a fitted effect of over 60% in size.
Potency is read from the fitted curve at half-maximal effect; tags tell the direction and shape of the fitted curve.

The molecules below were run against Schistosoma mansoni thioredoxin glutathione reductase (TGR) (UniProt Q962Y6) (assay: qHTS Assay for the Inhibitors of Schistosoma Mansoni Peroxiredoxins). Settings: purified TGR, DTNB reduction, TNB absorbance 405 nm; series mostly up to 114 µM.
In short: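 TGR 20 nM + NADPH 100 uM (dispensed conc.), cpd preinc 15 min RT; start with NADPH (500 uM addition) then DTNB (15 mM addition). Kinetic TNB absorbance, 405 nm filter. Four-parameter Hill fit across titration.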
For `O=C(CCCOc1ccccc1)N1CCN(c2ccccc2)CC1`, the Potency was “inactive”. `Cc1ccc(NC(=O)c2c(-c3c(F)cccc3Cl)noc2C)cc1F` was tested, and the Potency was “inactive”. `COCCn1nnnc1C(c1ccc(C)cc1)N1CCN(Cc2ccc3c(c2)OCO3)CC1` (stereo not given) was tested, and the Potency was inconclusive [inhibitor, full curve, poor fit]. `CN(C)/C=C1/C=C(c2ccccc2)OC1=O` was tested, and the Potency was active: 31.6 µM. For `CC(C)=CC/C=C1\CCC(C(=O)O)C(C(=O)O)C1` (stereo not given), the Potency was inconclusive [inhibitor, single point]. `COc1ccc2[nH]c(C)c(CCN(Cc3cccs3)C(=S)Nc3cccc(F)c3)c2c1` was tested, and the Potency was inconclusive [inhibitor, partial curve]. `COc1cccc(CN2CC(C(=O)NCCn3ccc(C)n3)CCC2=O)c1` (stereo not given) was tested, and the Potency was inconclusive [inhibitor, partial curve, poor fit]. For `CCOC(=O)C1CCN(C(=O)CS(=O)(=O)Cc2nc(-c3ccccc3Cl)oc2C)CC1`, the Potency was inconclusive [inhibitor, partial curve, poor fit]. `O=C(NC(=S)NCc1ccccc1)c1ccccc1F` was tested, and the Potency was inconclusive [inhibitor, partial curve]. With `COc1ccc(-c2cc(C(=O)Nc3cc(C)on3)no2)cc1OC` the Potency was inconclusive [inhibitor, single point]. With `O=C1CSC(=S)N1/N=C/c1c(F)cccc1F` the Potency was active: 8.91 µM. For `Cc1noc(C)c1C(=O)OCC(=O)NC(=O)NC12CC3CC(CC(C3)C1)C2`, the Potency was inconclusive [inhibitor, single point]. With `CCOC(=O)C1=C(C)N=c2s/c(=C\c3ccc(C(=O)O)cc3)c(=O)n2C1c1ccc(F)cc1` (stereo not given) the Potency was “inactive”. For `CCc1nn2c(=O)cc(COc3cccc(NC(=O)c4ccco4)c3)nc2s1`, the Potency was inconclusive [inhibitor, full curve]. With `O=C(Cn1c2ccc(F)cc2c2nc3n(c(=O)c21)CCS3)NC1CCCC1` the Potency was inconclusive [inhibitor, single point]. In the case of `CCOc1cc(CN2CCCC(N3CCc4ccccc4C3)C2)ccc1O` (stereo not given), the Potency is reported as inconclusive [inhibitor, partial curve]. In the case of `O=C(O)c1ccc2c(c1)C(=O)N(Cc1ccco1)C2=O`, the Potency is reported as inconclusive [inhibitor, partial curve]. `Cc1csc(NC(=O)c2cccc(C)c2C)n1` was tested, and the Potency was “inactive”. `O=C(CN1C(=O)CCC1=O)NCC12CC3CC(CC(C3)C1)C2` was tested, and the Potency was inconclusive [inhibitor, partial curve]. In the case of `O=C(NC(=S)Nc1ccc(CN2CCOCC2)cc1)c1cccc(F)c1`, the Potency is reported as inconclusive [inhibitor, partial curve, poor fit]. For `CC(C)(NC(=O)c1cc(Cl)c2ccccc2c1O)C(=O)O`, the Potency was inconclusive [inhibitor, partial curve, poor fit]. With `O=C(NC(=S)Nc1ccc(S(=O)(=O)Nc2nccs2)cc1)c1ccc(F)c(F)c1` the Potency was inconclusive [inhibitor, full curve]. With `Cc1ccc(S(=O)(=O)NN2C(=O)c3ccccc3NC2c2ccco2)cc1` (stereo not given) the Potency was inconclusive [inhibitor, single point]. `N#Cc1nc(COc2cccc(Cl)c2)oc1NCCN1CCOCC1` was tested, and the Potency was active: 35.5 µM. `Cc1cccn2c(=O)c3cc(C(=O)NCCCN4CCCC4=O)n(C)c3nc12` was tested, and the Potency was inconclusive [inhibitor, partial curve]. With `COc1ccc(C(C)=O)cc1COc1nc(C)nc2ccccc12` the Potency was “inactive”. `O=C(N/N=C/c1cc(Br)c(O)c(Br)c1O)c1cccnc1` was tested, and the Potency was inconclusive [inhibitor, partial curve, poor fit]. With `CCCCNC(=O)Cn1cnc2sc(C)c(S(=O)(=O)N3CCN(c4ccccc4OC)CC3)c2c1=O` the Potency was “inactive”. With `Cc1ccc(C)c2[nH]c(=O)c(CN(Cc3ccc4c(c3)OCO4)Cc3nnnn3Cc3ccco3)cc12` the Potency was inconclusive [inhibitor, partial curve]. In the case of `CC(C)Nc1nc(-c2cccnc2)nc(-c2ccccc2)c1C#N`, the Potency is reported as “inactive”. In the case of `O=C(NCc1ccco1)c1cnn2c1NC(c1ccccc1)CC2C(F)(F)F` (stereo not given), the Potency is reported as inconclusive [inhibitor, partial curve]. In the case of `Cc1cccc([C@@H]2[C@@H]3C(=O)N(Cc4ccccc4)C(=O)[C@@H]3[C@]3(C)C(=O)N(c4cccc(F)c4)C(=O)N23)c1`, the Potency is reported as “inactive”. For `OCCC1CN(Cc2cccn2-c2cccnc2)CCN1Cc1ccc(F)cc1` (stereo not given), the Potency was inconclusive [inhibitor, partial curve]. `N#CC(C#N)=C1c2cc(S(=O)(=O)NCCO)ccc2-c2ccc(S(=O)(=O)NCCO)cc21` was tested, and the Potency was active: 4.47 µM. `CCC(C)c1ccc(O)c(NC(=O)c2ncn[nH]2)c1` (stereo not given) was tested, and the Potency was “inactive”. With `O=C(Nc1c2c(nn1-c1cccc(Cl)c1)CS(=O)C2)c1ccc2c(c1)OCO2` (stereo not given) the Potency was inconclusive [inhibitor, full curve]. `CC1CN(C(=O)COC(=O)c2cc(Cl)ccc2[N+](=O)[O-])CC(C)O1` (stereo not given) was tested, and the Potency was “inactive”. In the case of `O=C(NCc1ccc(F)cc1)c1ccc(CS(=O)(=O)Cc2ccccc2F)o1`, the Potency is reported as active: 39.8 µM. With `CCOc1ccc(NC(=O)CC2C(=O)N(c3ccccc3)C(=O)N2Cc2cccc(OC)c2)cc1` (stereo not given) the Potency was “inactive”. `Cc1ccccc1-c1cc(C(=O)NCc2ccco2)n(CC2CC(c3cccnc3)=NO2)n1` (stereo not given) was tested, and the Potency was active: 17.8 µM. For `CC(C)(C)n1nnnc1C(c1cccs1)N(Cc1ccccc1)Cc1ccco1` (stereo not given), the Potency was inconclusive [inhibitor, partial curve]. `COc1ccccc1NC(=O)Nc1ccc(C(=O)N2CCCCC2)cc1` was tested, and the Potency was “inactive”. For `CC1(C)CC(=O)C(C=NCCN2CCN(C(=O)Cc3ccc(F)cc3)CC2)=C(O)C1`, the Potency was inconclusive [inhibitor, partial curve]. In the case of `CCn1c(SC)nc(O)c(C(c2ccc(OC)c(O)c2)c2c(O)nc(SC)n(CC)c2=O)c1=O`, the Potency is reported as active: 3.98 µM. In the case of `CC(=O)N(c1cccc(Cl)c1)c1nc(C)cc(C)c1C#N`, the Potency is reported as “inactive”. For `CN1CCN(C(c2cccnc2)c2ccc3cccnc3c2O)CC1` (stereo not given), the Potency was active: 0.251 µM. In the case of `COc1ccccc1CNCC(=O)Nc1ccc(N(C)C)cc1`, the Potency is reported as inconclusive [inhibitor, partial curve]. In the case of `Cc1ccc(NC(=O)CCN2C(=O)c3ccccc3C2=O)cc1`, the Potency is reported as “inactive”. `COc1ccc(CNC(=O)CCn2c(=O)oc3ccccc32)cc1` was tested, and the Potency was inconclusive [inhibitor, single point]. With `CCOc1ccc(Nc2ncnc3c2nnn3Cc2ccccc2)cc1` the Potency was “inactive”. For `C#Cc1ccc([C@@H]2C=C(C(=O)OCC=C)O[C@H](OCCCCO)C2)cc1`, the Potency was inconclusive [inhibitor, partial curve]. With `Cc1ccccc1-c1nc(CS(=O)(=O)CC(=O)NC2CC2)c(C)o1` the Potency was inconclusive [inhibitor, partial curve, poor fit]. In the case of `COc1ccc(C2CC(c3ccccc3)=NN2C(=O)c2ccc(F)cc2)cc1` (stereo not given), the Potency is reported as “inactive”. In the case of `C#CCOCCOCCOCCNc1nc(N2CCN(C(=O)[C@H](Cc3cc4ccccc4[nH]3)n3cc([C@@H](N)C(C)CC)nn3)CC2)nc(N2CCN(C(=O)[C@H](CCCCN)n3cc([C@@H](N)CC(C)C)nn3)CC2)n1` (stereo not given in full), the Potency is reported as inconclusive [inhibitor, partial curve]. In the case of `Cc1ccc(-c2nc(CS(=O)CC(=O)NC3CCCCC3)c(C)o2)cc1` (stereo not given), the Potency is reported as active: 12.6 µM. For `COc1ccc2nc(NCc3cccnc3)sc2c1`, the Potency was inconclusive [inhibitor, full curve, poor fit]. For `COCCNC(=O)c1ccc2c(=O)n(CCOC)c(SCC(=O)c3c[nH]c4ccccc34)nc2c1`, the Potency was inconclusive [inhibitor, partial curve]. In the case of `COc1cccc2cc(C(=O)C3=C(O)C(=O)N(CCN4CCOCC4)C3c3ccc(Cl)cc3)oc12` (stereo not given), the Potency is reported as active: 39.8 µM. In the case of `CC1(C)CC(=O)C(N=Nc2ccc(C(F)(F)F)cc2[N+](=O)[O-])=C(O)C1`, the Potency is reported as active: 3.98 µM. With `OCC#CC[N+]1(CC#Cc2ccccc2)CCOCC1` the Potency was inconclusive [inhibitor, partial curve]. In the case of `CCn1c(=O)c(=O)[nH]c2cc(C(=O)NC3CCCc4ccccc43)ccc21` (stereo not given), the Potency is reported as inconclusive [inhibitor, partial curve]. In the case of `CC(C)Sc1nc(N)nc(-c2cccs2)c1C#N`, the Potency is reported as inconclusive [inhibitor, partial curve]. In the case of `O=C(NC(=S)NCc1ccco1)c1cccc(Cl)c1`, the Potency is reported as inconclusive [inhibitor, partial curve]. `CCc1cccc(NC(=O)c2oc3ccc4c(c3c2C)C(=O)CC(C)(C)O4)c1` was tested, and the Potency was “inactive”. `Cc1nn(Cc2ccc(Cl)cc2Cl)c(C)c1NC(=O)c1sc2ccccc2c1Cl` was tested, and the Potency was inconclusive [inhibitor, single point]. `C=CCN(N=Nc1cccc([N+](=O)[O-])c1)c1cccc([N+](=O)[O-])c1` was tested, and the Potency was active: 20 µM. In the case of `Cc1ccc(CN2C(=O)CC(Nc3ccc(N4CCOCC4)cc3)C2=O)cc1` (stereo not given), the Potency is reported as active: 39.8 µM. For `CCCCOc1cccc(C2C(C(=O)c3ccc(C)o3)=C(O)C(=O)N2c2nnc(C)s2)c1` (stereo not given), the Potency was inconclusive [inhibitor, single point]. `N#CCCn1c(SCC(=O)NCc2ccco2)nc2ccccc21` was tested, and the Potency was active: 39.8 µM. With `CCc1ccc(-n2c(SCc3ccccc3C)nc3[nH]ncc3c2=O)cc1` the Potency was “inactive”.
